From paper PMC4336329 (PLoS ONE, 2015) come the findings set out here.

The structures appear in SMILES notation. The campaign covered roughly 310,000 compounds. About 14,000 (4.5%) showed an effect of 50% or more. Effects have a minus sign here. Some of the results follow.
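Further: peak tail current of the secondary pulse compared with the same well before compound.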

The target in this test is human ether-à-go-go-related gene (hERG) potassium channel (human, UniProt Q12809). The experiment in a line: primary screen, population patch clamp on CHO cells stably expressing hERG.
Sequence of human ether-à-go-go-related gene (hERG) potassium channel (Q12809 whole entry, looked up): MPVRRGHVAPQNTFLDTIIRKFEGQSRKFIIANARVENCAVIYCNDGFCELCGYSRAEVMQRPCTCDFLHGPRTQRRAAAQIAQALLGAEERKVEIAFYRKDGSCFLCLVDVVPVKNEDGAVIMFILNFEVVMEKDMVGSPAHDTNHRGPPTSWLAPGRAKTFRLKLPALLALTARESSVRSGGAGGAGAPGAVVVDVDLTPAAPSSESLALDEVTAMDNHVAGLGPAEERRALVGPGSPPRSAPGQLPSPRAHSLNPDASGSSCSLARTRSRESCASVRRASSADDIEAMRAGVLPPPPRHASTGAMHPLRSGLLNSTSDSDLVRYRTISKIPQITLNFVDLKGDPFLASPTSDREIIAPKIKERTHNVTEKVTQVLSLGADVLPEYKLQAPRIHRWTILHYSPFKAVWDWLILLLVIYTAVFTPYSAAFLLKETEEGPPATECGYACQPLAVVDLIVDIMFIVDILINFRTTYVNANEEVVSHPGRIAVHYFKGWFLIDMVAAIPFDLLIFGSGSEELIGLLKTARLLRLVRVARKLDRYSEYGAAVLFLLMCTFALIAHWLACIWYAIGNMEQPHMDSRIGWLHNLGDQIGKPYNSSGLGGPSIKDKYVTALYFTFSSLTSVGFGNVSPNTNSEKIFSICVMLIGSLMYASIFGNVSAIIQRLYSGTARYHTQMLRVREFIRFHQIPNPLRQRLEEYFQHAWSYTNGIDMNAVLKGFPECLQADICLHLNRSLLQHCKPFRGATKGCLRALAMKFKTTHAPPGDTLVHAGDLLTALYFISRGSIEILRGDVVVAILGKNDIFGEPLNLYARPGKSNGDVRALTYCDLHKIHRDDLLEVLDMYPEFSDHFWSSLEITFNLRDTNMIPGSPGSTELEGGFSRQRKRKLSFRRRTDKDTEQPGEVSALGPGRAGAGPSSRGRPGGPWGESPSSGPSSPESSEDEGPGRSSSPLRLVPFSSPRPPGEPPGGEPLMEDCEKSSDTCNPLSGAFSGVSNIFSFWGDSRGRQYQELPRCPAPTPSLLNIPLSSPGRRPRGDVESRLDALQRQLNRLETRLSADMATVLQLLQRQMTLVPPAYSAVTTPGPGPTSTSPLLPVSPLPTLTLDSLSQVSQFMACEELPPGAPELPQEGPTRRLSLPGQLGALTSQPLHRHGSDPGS
Consider `Cc1[nH+]csc1CCOC(=O)c1cccc([N+](=O)[O-])c1.[Cl-]`, for which the “hERG current change (%, negative = inhibition) at 10uM” value is on record as -28.1%.
The value for `COc1cc(N=c2ssnc2Cl)cc(OC)c1OC` was 4.85%; that for `CC1(C)O[C@@H]2C[C@H]3[C@@H]4C[C@H](F)C5=CC(=O)C=C[C@]5(C)[C@@]4(F)[C@@H](O)C[C@]3(C)[C@]2(C(=O)CO)O1` was 7.13%; that for `CC(=O)Nc1cc2c(cc1NC(=O)Cn1nc(-c3ccc4c(c3)OCCO4)ccc1=O)OCCO2` was 9.36%.
The value for `CCOC(=O)Cn1nc(C)c(NC(=O)c2ccc(Br)o2)c1C` was 15%; that for `O=C(O)[C@H]1CCCC[C@H]1C(=O)Nc1ccc(S(=O)(=O)N2CCCCC2)cc1` was -9.27%; that for `O=C(Nc1ccc2c(c1)OCCO2)c1ccco1` was 0.301%.
The result for `COc1ccc(/C(N)=N/OC(=O)c2cccc([N+](=O)[O-])c2C)cc1` reads -12.8%.
Take `FC(F)(F)c1cnc(C(c2ccccn2)c2ncn[nH]2)c(Cl)c1` (stereo not drawn): the “hERG current change (%, negative = inhibition) at 10uM” value was 20.7%.
As for `Cc1ccc(S(=O)(=O)N2CCOCC2)cc1NC(=O)COC(=O)CNC(=O)c1ccc(C(C)(C)C)cc1`, the “hERG current change (%, negative = inhibition) at 10uM” value is -3.31%.
The result for `COc1ccc(-c2nnc(SCC(=O)N3CCCc4ccccc43)o2)cc1OC` reads 4.19%.
The result for `CC(=O)c1sc(NC(=O)CCCc2nc3ccccc3c(=O)[nH]2)nc1-c1ccccc1` reads -7.77%; that for `O=C(CCn1c(=S)[nH]c2ccccc2c1=O)NCCCN1CCOCC1`, -5.65%; that for `CN(C)CCCNc1ccc(-c2n[nH]c(=O)c3ccccc23)cc1[N+](=O)[O-]`, 1.1%.
The result for `O=C(O)Cn1nnc(-c2ccc(OCc3ccccc3Cl)cc2)n1` reads 25.1%; that for `CCOC(=O)C1=C(C)Nc2nc(C)nn2C1c1ccc(OCC)c(OC)c1` (stereo not drawn), 9.79%.
Turning to `Cc1ccc2c(c1)C=CC(C)(C)S2=O` (stereo not drawn), the “hERG current change (%, negative = inhibition) at 10uM” value was found to be 19.1%.
For `CC(C)CC(=O)Nc1cc2nn(-c3ccccc3)nc2cc1Cl`, the “hERG current change (%, negative = inhibition) at 10uM” value was 2.83%.
For the compound `Cc1cccc(CN2CCN(C(=O)CCl)CC2)c1`, the “hERG current change (%, negative = inhibition) at 10uM” value was 2.29%.
The result for `O=C(Nc1ccc(N2CCCCC2)cc1)c1cncc(Br)c1` reads 8.69%; that for `COc1ccccc1CN(C)C(=O)C(c1ccccc1)c1ccccc1`, -2.32%.
The value for `Cc1cnc(NC(=O)CSc2nnc(-c3ccc(Cl)cc3Cl)n2N)s1` was -30.5%; that for `O=C(NCc1cccs1)C12CC3CC(CC(C3)C1)C2` was 15.6%; that for `COc1cccc(NC(=O)COC(=O)CCOc2ccccc2OC)c1` was -3.21%.
